# Experimental data as given in the supplement of paper PMC10037445.
# In all, about 2,900 compounds were measured (“NF-kB SEAP reporter activity, fold change vs agonist alone”: median about 0.99, highest 2% from about 2.6 on). The list shows a part of the results.
# Tests used:
# RAW-Dual [1] = assay: NF-kB SEAP reporter activity, fold change vs agonist alone; cytotoxicity flag (confluency mask): not cytotoxic; higher = enhanced NF-kB activity
# Procedure, shortened: (§1)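 Library stock was pin-tooled at 50 nL into 384-well plates of RAW-Dual macrophages (50,000 cells/well, DMEM), followed 1 h later by a PRR agonist, and the cells were kept at 37 °C, 5% CO2. Supernatant collected after 20 hours was read for IRF by QuantiLuc luminescence and for NF-κB by QuantiBlue absorbance at 620 nm. Reporter activity is fold change over agonist-alone wells, and a well counted as cytotoxic when its IncuCyte confluency was below 70% of agonist controls in both mask sets.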
# RAW-Dual [2] = assay: NF-kB SEAP reporter activity, fold change vs agonist alone; higher = enhanced NF-kB activity
# Procedure, shortened: as §1
# RAW-Dual [3] = assay: NF-kB SEAP reporter activity, fold change vs agonist alone; cytotoxicity flag (confluency mask): cytotoxic (confluency <70% of control); higher = enhanced NF-kB activity
# Procedure, shortened: as §1
# [4] = agonist: ODN 1826 (TLR9) 0.5 ug/mL
# [5] = agonist: Pam2CSK4 (TLR2/6) 0.1 ug/mL
# [6] = agonist: Pam3CSK4 (TLR2/1) 0.1 ug/mL
# [7] = library stock concentration (final ~1000-fold dilution): 10 mM, cytotoxicity flag (confluency mask): not cytotoxic, agonist: Imiquimod (TLR7) […]
# [8] = library stock concentration (final ~1000-fold dilution): 10 mM, cytotoxicity flag (confluency mask): not cytotoxic, agonist: MPLA (TLR4) […]
structure (smiles),measurement,setting,value
CN1CCN(CC(=O)N2c3ccccc3C(=O)Nc3cccnc32)CC1.Cl.Cl (library stock concentration (final ~1000-fold dilution): 10 mM water),NF-kB SEAP reporter activity,RAW-Dual [1]; agonist: LPS (TLR4) 0.1 ug/mL,1.25
same,NF-kB SEAP reporter activity,RAW-Dual [1]; [4],1.15
same,NF-kB SEAP reporter activity,RAW-Dual [1]; [5],1.16
same,NF-kB SEAP reporter activity,RAW-Dual [1]; [6],1.06
CN1CCN(CC(=O)N2c3ccccc3C(=O)Nc3cccnc32)CC1.Cl.Cl,NF-kB SEAP reporter activity,"RAW-Dual [2]; library stock concentration (final ~1000-fold dilution): 10 mM water, cytotoxicity flag (confluency mask): not cytotoxic, agonist: Imiquimod (TLR7) […]",0.949
same,NF-kB SEAP reporter activity,"RAW-Dual [2]; library stock concentration (final ~1000-fold dilution): 10 mM water, cytotoxicity flag (confluency mask): not cytotoxic, agonist: MPLA (TLR4) […]",1.01
CN1CCN(Cc2ccc(NC(=O)Cc3ccc(Oc4cc(NC(=O)C5CC5)ncn4)cc3)cc2C(F)(F)F)CC1 (library stock concentration (final ~1000-fold dilution): 10 mM),NF-kB SEAP reporter activity,RAW-Dual [3]; agonist: LPS (TLR4) 0.1 ug/mL,0.403
same,NF-kB SEAP reporter activity,RAW-Dual [3]; [4],0.176
same,NF-kB SEAP reporter activity,RAW-Dual [3]; [5],0.0834
same,NF-kB SEAP reporter activity,RAW-Dual [3]; [6],0.142
CN1CCN(Cc2ccc(NC(=O)Cc3ccc(Oc4cc(NC(=O)C5CC5)ncn4)cc3)cc2C(F)(F)F)CC1,NF-kB SEAP reporter activity,"RAW-Dual [2]; library stock concentration (final ~1000-fold dilution): 10 mM, cytotoxicity flag (confluency mask): cytotoxic (confluency <70% of control), agonist: Imiquimod (TLR7) […]",0.137
same,NF-kB SEAP reporter activity,"RAW-Dual [2]; library stock concentration (final ~1000-fold dilution): 10 mM, cytotoxicity flag (confluency mask): cytotoxic (confluency <70% of control), agonist: MPLA (TLR4) […]",0.26
COc1cc(-c2cn(C)c(=O)c3cnccc23)cc(OC)c1CN(C)C,NF-kB SEAP reporter activity,RAW-Dual [2]; [7],1.22
same,NF-kB SEAP reporter activity,RAW-Dual [2]; [8],1.22
COc1cc(-c2cn(C)c(=O)c3cnccc23)cc(OC)c1CN(C)C (library stock concentration (final ~1000-fold dilution): 10 mM),NF-kB SEAP reporter activity,RAW-Dual [1]; agonist: LPS (TLR4) 0.1 ug/mL,1.17
same,NF-kB SEAP reporter activity,RAW-Dual [1]; [4],1.34
same,NF-kB SEAP reporter activity,RAW-Dual [1]; [5],0.935
same,NF-kB SEAP reporter activity,RAW-Dual [1]; [6],1.17
CN(C)CCC(c1ccc(Br)cc1)c1ccccn1.O=C(O)/C=C\C(=O)O (centres undefined) (library stock concentration (final ~1000-fold dilution): 10 mM),NF-kB SEAP reporter activity,RAW-Dual [1]; agonist: LPS (TLR4) 0.1 ug/mL,1.04
same,NF-kB SEAP reporter activity,RAW-Dual [1]; [4],0.916
same,NF-kB SEAP reporter activity,RAW-Dual [1]; [5],1.09
same,NF-kB SEAP reporter activity,RAW-Dual [1]; [6],1.11
CN(C)CCC(c1ccc(Br)cc1)c1ccccn1.O=C(O)/C=C\C(=O)O (centres undefined),NF-kB SEAP reporter activity,RAW-Dual [2]; [7],1.41
same,NF-kB SEAP reporter activity,RAW-Dual [2]; [8],1.14
CC1=C(CC(=O)O)c2cc(F)ccc2/C1=C\c1ccc(S(C)=O)cc1 (centres undefined) (library stock concentration (final ~1000-fold dilution): 10 mM),NF-kB SEAP reporter activity,RAW-Dual [1]; agonist: LPS (TLR4) 0.1 ug/mL,1.36
same,NF-kB SEAP reporter activity,RAW-Dual [1]; [4],1.05
same,NF-kB SEAP reporter activity,RAW-Dual [1]; [5],1.04
same,NF-kB SEAP reporter activity,RAW-Dual [1]; [6],1.13
CC1=C(CC(=O)O)c2cc(F)ccc2/C1=C\c1ccc(S(C)=O)cc1 (centres undefined),NF-kB SEAP reporter activity,RAW-Dual [2]; [7],1.12
same,NF-kB SEAP reporter activity,RAW-Dual [2]; [8],1.28
Cc1onc(-c2ccccc2)c1-c1ccc(S(N)(=O)=O)cc1,NF-kB SEAP reporter activity,RAW-Dual [2]; [7],1.1
same,NF-kB SEAP reporter activity,RAW-Dual [2]; [8],1.23
Cc1onc(-c2ccccc2)c1-c1ccc(S(N)(=O)=O)cc1 (library stock concentration (final ~1000-fold dilution): 10 mM),NF-kB SEAP reporter activity,RAW-Dual [1]; agonist: LPS (TLR4) 0.1 ug/mL,1.45
same,NF-kB SEAP reporter activity,RAW-Dual [1]; [4],0.984
same,NF-kB SEAP reporter activity,RAW-Dual [1]; [5],0.897
same,NF-kB SEAP reporter activity,RAW-Dual [1]; [6],1.12
N#Cc1ccc(C2CCc3cncn32)c(F)c1 (centres undefined),NF-kB SEAP reporter activity,RAW-Dual [2]; [7],0.889
same,NF-kB SEAP reporter activity,RAW-Dual [2]; [8],1.09
N#Cc1ccc(C2CCc3cncn32)c(F)c1 (centres undefined) (library stock concentration (final ~1000-fold dilution): 10 mM),NF-kB SEAP reporter activity,RAW-Dual [1]; agonist: LPS (TLR4) 0.1 ug/mL,0.988
same,NF-kB SEAP reporter activity,RAW-Dual [1]; [4],1
same,NF-kB SEAP reporter activity,RAW-Dual [1]; [5],0.994
same,NF-kB SEAP reporter activity,RAW-Dual [1]; [6],1.22
CCCc1cc(=O)[nH]c(=S)[nH]1,NF-kB SEAP reporter activity,RAW-Dual [2]; [7],0.729
same,NF-kB SEAP reporter activity,RAW-Dual [2]; [8],1.05
CCCc1cc(=O)[nH]c(=S)[nH]1 (library stock concentration (final ~1000-fold dilution): 10 mM),NF-kB SEAP reporter activity,RAW-Dual [1]; agonist: LPS (TLR4) 0.1 ug/mL,1.55
same,NF-kB SEAP reporter activity,RAW-Dual [1]; [4],1.36
same,NF-kB SEAP reporter activity,RAW-Dual [1]; [5],1.76
same,NF-kB SEAP reporter activity,RAW-Dual [1]; [6],1.89
Cn1cnc(-c2cc3nccc(Oc4ccc(NC(=S)NC(=O)Cc5ccccc5)cc4F)c3s2)c1,NF-kB SEAP reporter activity,RAW-Dual [2]; [7],0.326
same,NF-kB SEAP reporter activity,RAW-Dual [2]; [8],0.555
Cn1cnc(-c2cc3nccc(Oc4ccc(NC(=S)NC(=O)Cc5ccccc5)cc4F)c3s2)c1 (library stock concentration (final ~1000-fold dilution): 10 mM),NF-kB SEAP reporter activity,RAW-Dual [1]; agonist: LPS (TLR4) 0.1 ug/mL,0.614
same,NF-kB SEAP reporter activity,RAW-Dual [1]; [4],0.395
same,NF-kB SEAP reporter activity,RAW-Dual [1]; [5],0.125
same,NF-kB SEAP reporter activity,RAW-Dual [1]; [6],0.213
